Data: PubChem BioAssay AID1159614 (National Center for Advancing Translational Sciences (NCATS), 2016)
Among all 45,000 compounds or so, about 65 (0.1%) were called active. Calls come from the whole dose curve; as a rule, active = well fitted activation curve with a large enough effect; inconclusive = small, poorly fitted or top-dose-only effect; inactive = no such curve, though single readings can be large or run the other way. This is one part of the list.

target: Galactocerebrosidase (Homo sapiens) (UniProt P54803); assay: A Novel Cell-Based Assay to Identify Small Molecules for B -Galactocerebrosidase; conditions: 145M-Twi-hGALC-G270D cells (Twitcher mouse brain line with human GALC G270D), HMU-beta-Gal fluorescence, 48 h; series mostly up to 57.5 µM; activation: at the top concentration; note: 0% is about no effect; nearly all actives have a fitted effect of over 65% in size
Procedure, shortened: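 Fluorescence readout: HMU-β-gal cleavage by mutant GALC (0.1 mM final, citrate/phosphate pH 5.2 with 1 mg/mL taurocholate), stopped with carbonate/bicarbonate plus Triton X-100. Cells: murine Twitcher 145M-Twi expressing human G270D GALC; qHTS for activators.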

UniProt P54803, sequence (P54803 whole entry, looked up): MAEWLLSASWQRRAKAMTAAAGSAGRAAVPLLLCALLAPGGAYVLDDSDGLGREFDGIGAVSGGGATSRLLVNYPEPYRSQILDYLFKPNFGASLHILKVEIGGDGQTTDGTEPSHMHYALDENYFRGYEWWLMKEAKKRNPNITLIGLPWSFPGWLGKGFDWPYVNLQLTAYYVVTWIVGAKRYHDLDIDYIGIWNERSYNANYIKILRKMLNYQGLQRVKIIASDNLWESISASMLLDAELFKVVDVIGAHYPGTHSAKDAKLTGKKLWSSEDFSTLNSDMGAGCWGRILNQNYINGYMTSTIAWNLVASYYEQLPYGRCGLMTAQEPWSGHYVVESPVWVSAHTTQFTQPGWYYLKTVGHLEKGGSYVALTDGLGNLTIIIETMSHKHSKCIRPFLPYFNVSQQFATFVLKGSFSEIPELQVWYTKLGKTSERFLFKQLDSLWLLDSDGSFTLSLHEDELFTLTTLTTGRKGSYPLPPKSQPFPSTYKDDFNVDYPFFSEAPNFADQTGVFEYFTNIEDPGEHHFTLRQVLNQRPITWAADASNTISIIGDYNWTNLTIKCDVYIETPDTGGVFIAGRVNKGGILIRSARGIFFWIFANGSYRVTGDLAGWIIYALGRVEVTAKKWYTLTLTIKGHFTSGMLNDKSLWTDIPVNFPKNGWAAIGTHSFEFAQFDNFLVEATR

activation, inactive:
O=C(COc1ccc2oc3c(c2c1)CCCC3)Nc1ccc(Br)cc1 -21.8%, Cc1ccc(Cl)cc1NC(=O)C(C)n1nnc2sc(-c3ccccc3)cc2c1=O (stereo not given) -9.18%, COC(=O)c1cccc(-n2c(CCC(=O)O)ccc2-c2ccc(OC)cc2)c1 -11%, CCOC(=O)c1cc(-c2ccccc2)n(CCCC(=O)Nc2ccc(C(C)C)cc2)c1C -27.8%, COc1cccc(CNC(=O)CCc2cn(Cc3ccccc3Cl)c3ccccc23)c1 -1.2%, CC(=O)N1CCc2cc(Br)cc(S(=O)(=O)N3CCN(c4cccc(C(F)(F)F)c4)CC3)c21 -8.81%, COc1cc(C(CC(=O)NCc2ccc(F)cc2)N2Cc3ccccc3C2=O)cc(OC)c1OC (stereo not given) -5.4%, COc1ccc(NC(=O)Cn2c(=O)n(-c3ccc(OC)c(OC)c3)c(=O)c3ccccc32)cc1 -1.6%, COc1ccccc1NC(=O)C1=C(C)Nc2c(C(=O)Nc3ccc(F)cc3)cnn2C1c1cccc([N+](=O)[O-])c1 (stereo not given) 2.49%, CCCCN(C)c1nc2c(S(=O)(=O)c3ccc(CC)cc3)nnn2c2ccc(Cl)cc12 -8.05%, COc1ccccc1CNC(=O)C1CCCN(c2nc3ccccc3n3cccc23)C1 (stereo not given) -4.18%, CCCCOc1ccc(-c2nn(-c3ccccc3)cc2C2NC(=O)NC(C)=C2C(=O)OC)cc1 (stereo not given) 27.9%, COc1ccc(Cl)cc1C(=O)Nc1sc2c(c1C(=O)OC(C)C)CCCC2 -23.8%, O=C(C1CC1)N1CCc2cc(Br)cc(S(=O)(=O)N3CCN(c4cccc(C(F)(F)F)c4)CC3)c21 -13%, Cc1cccc(N2CCN(c3ncnc4c3nc3n4CCCCC3)CC2)c1C -6.17%, CCC(=O)N1CCc2cc(Br)cc(S(=O)(=O)N3CCC(C(=O)NCCCOC(C)C)CC3)c21 -9.98%, CCOC(=O)c1ccc(NC(=O)c2c(-c3c(F)cccc3Cl)noc2C)cc1 0.791%, COc1ccc(C2CC(=O)c3cc(-c4nc(-c5cccc(Cl)c5)cs4)c(=O)[nH]c3C2)cc1OC (stereo not given) -14.8%, COC(=O)c1ccccc1NC(=O)c1ccc(COc2ccccc2Cl)o1 -10.1%, CCOc1ccc(NC(=O)c2ccc(NC(=O)N3CCSc4ncccc43)cc2)cc1 -6.74%, COc1ccc(C(F)(F)F)cc1NC(=O)c1sc2nc(-c3cccs3)ccc2c1N -10.6%, CC(=O)c1ccc(N2CCN(c3ncnc4c3c(-c3ccccc3)cn4-c3cccc(C)c3)CC2)cc1 -0.993%, Cc1noc(/C=C/c2cccs2)c1S(=O)(=O)N1CCC(C(=O)Nc2ccc(F)c(Cl)c2)CC1 -11.9%, CCn1c(C(=O)NCCc2ccc(OC)c(OC)c2)cc2sc(Cl)cc21 -27.7%, CCOC(=O)c1cnn(-c2ccc(C(=O)Nc3cc(OC)c(OC)c(OC)c3)cc2)c1N 2.04%, CSc1ncc2c(n1)-c1ccccc1N(Cc1ccc(Cl)cc1)S2(=O)=O -5.65%, O=C(CSc1ccccc1)N1CCc2c([nH]c3ccccc23)C1c1ccc(F)cc1 (stereo not given) -38.6%, CC1CCN(S(=O)(=O)c2cn(CC(=O)Nc3cccc(C(F)(F)F)c3)c(=O)c3ccccc23)CC1 -12.3%, O=C(Cn1cc(C(=O)c2ccco2)c2ccccc21)Nc1ccc(Br)cc1 -17.9%, Nc1c(-c2nc(-c3cccs3)no2)nnn1-c1ccc(Cl)cc1 -12.6%, O=C(NC1CCCCC1)c1ccc(Cn2c(SCc3ccccc3F)nc3cccnc32)cc1 -4.55%, COc1cccc(C(=O)Nc2cccc(C(=O)OCc3cc(=O)n4nc(C5CC5)sc4n3)c2)c1 -18.3%, CCCn1c2ccccc2c2cnn(CC(=O)N(C)c3ccc(F)cc3)c(=O)c21 -5.58%, COc1cccc(CSc2nc3ccccc3c3nc(CCn4c(C)nc5ccccc54)nn23)c1 -16.3%, CSc1ncc(Cl)c(C(=O)Nc2ccc(NC(C)=O)cc2)n1 -6.77%, CCC1CCCCN1C(=O)Cn1c(=O)n(CCCCCC(=O)NCc2ccccc2)c(=O)c2sccc21 (stereo not given) 0.209%, COc1ccc(Cl)cc1NC(=O)c1c(NCc2ccc(C)o2)sc2c1CCCCC2 12.3%, COc1cccc(NC(=O)c2ccc3nc(CCc4ccccc4)oc3c2)c1 -18.4%, CCCCNc1nc(Oc2ccc(OCC)nn2)nc(N2CCOCC2)n1 -11.2%, COc1ccccc1CNC(=O)CCC(=O)N1CC2CCCN2c2ccccc21 (stereo not given) -6.95%, COc1ccc(-c2[nH]c3ccccc3c2SCCNC(=O)c2cc(OC)c(OC)c(OC)c2)cc1 -8.23%, O=C(NCc1ccc2c(c1)CCN2C(=O)c1ccc(F)cc1)c1cc2ccccc2[nH]1 -18.2%, COc1ccc(SCc2cc(=O)c3cc(Cl)ccc3[nH]2)cc1 -21%, c1ccc(CNc2nc3c(-c4ccccc4)nnn3c3ccccc23)cc1 -21.3%, O=C(Cc1ccc(Cl)cc1)Nc1ccc2nn(-c3ccc(Cl)cc3)nc2c1 -5.44%, COc1cccc(NC(=O)C2CCCN(S(=O)(=O)c3c(C)nn(C)c3C)C2)c1 (stereo not given) -1.84%, Cc1cccc(C)c1OCCn1c(C2CC(=O)N(c3cccc(Cl)c3)C2)nc2ccccc21 (stereo not given) -13.9%, CCOc1ccc(S(=O)(=O)NCCc2sc3nc(-c4ccc(F)cc4)nn3c2C)cc1 -11.5%, CCn1c2ccccc2c2cc(CN3CCN(Cc4ccccc4F)CC3)ccc21 -5.57%, CCOc1ccc(CCNC(=O)c2cn(CC)c3ccc(S(=O)(=O)N4CCc5ccccc5C4)cc3c2=O)cc1OCC -16.3%, CC(C)Sc1oc(-c2cccs2)nc1S(=O)(=O)c1ccc(Cl)cc1 -27.1%, CCc1ccccc1N1C(=O)N(Cc2ccc(C#N)cc2)c2ccccc2S1(=O)=O -24.4%, NC(N)=NC(N)=NCCc1ccccc1 -19.3%, CCOc1ccc(OCC)c(NS(=O)(=O)c2cc(-c3cc(C)no3)ccc2C)c1 -13.4%, Cc1ccc(CNC(=O)c2ccc(Cn3c(=O)c4ccccc4n(CC(=O)Nc4ccc(C)cc4C)c3=O)cc2)cc1 -9.7%, CCOc1ccc(NC(=O)NCc2c(-n3cccc3)sc3c2CCCC3)cc1 -19.3%, Cc1oc2ncnc(N3CCCCC3)c2c1C(=O)N1CCN(c2cccc(C(F)(F)F)c2)CC1 -24.7%, CC(=O)c1ccc(NC(=O)CSc2nnc3ccc(-c4ccc(Cl)cc4)nn23)cc1 -14.8%, Cc1ccc(Nc2c(-c3cccs3)nc3nc(C)cc(C)n23)cc1 -7.48%, CCOc1ccc(NC(=O)C2CCCN(S(=O)(=O)c3cccc4nonc34)C2)cc1 (stereo not given) -11.6%
